Assay results published in the supplement of paper PMC4166925.
± gives the standard deviation of the averaged measurements. Over roughly 33,000 sequences, “E-score (dimensionless, -0.5 to 0.5)” has its median near -0.049; the highest 2% begin near 0.37. This is one part of the list.

system: T1, PmTbr T-box DNA-binding domain (GST fusion); assay: PBM E-score of 8-mer (E-score (dimensionless, -0.5 to 0.5)); Tbr is Tbrain of the sea star Patiria miniata (Pm) or the sea urchin Strongylocentrotus purpuratus (Sp); higher = stronger binding preference; most listed sequences are background and not binding sites; settings: the construct has about 5 more residues each side
T1 sequence: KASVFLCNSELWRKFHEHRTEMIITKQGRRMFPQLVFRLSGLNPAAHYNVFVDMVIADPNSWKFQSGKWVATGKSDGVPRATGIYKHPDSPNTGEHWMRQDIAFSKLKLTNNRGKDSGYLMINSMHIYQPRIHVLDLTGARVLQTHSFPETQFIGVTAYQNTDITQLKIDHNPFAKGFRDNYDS
Description: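 Universal protein-binding microarray (Agilent AMADID 016060, 60-bp probes with a 35-bp variable region) incubated with 200 nM GST-fused Patiria miniata Tbr T-box DNA-binding domain (residues 272-466) in PBS pH 7.5. Scored for every ungapped 8-mer (given with its reverse complement) by the Universal PBM Analysis Suite as E-score (modified Wilcoxon-Mann-Whitney enrichment, range -0.5 to 0.5; >0.45 counts as bound) and Z-score of median probe intensity. Two replicate arrays (datasets 1 and 2).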

Sequence | PBM E-score of 8-mer
CACGGTAG | -0.104 ± 0.036
GTCGTTAA | 0.0848 ± 0.0083
CCCAAAAC | 0.0141 ± 0.0023
AGCCCCTC | 0.0711 ± 0.078
CATTATGA | -0.0803 ± 0.013
CACTAGTG | 0.197 ± 0.0089
GACGGATA | -0.101 ± 0.05
ATCGCTTA | 0.0877 ± 0.013
TGCACTAA | 0.135 ± 0.0049
CGGGGGAG | -0.241 ± 0.018
AGCACATC | 0.207 ± 0.05
AGATTCGG | -0.173 ± 0.036
GAGTATGA | 0.0407 ± 0.095
ACTATTGA | -0.138 ± 0.066
TCCGATAA | -0.108 ± 0.093
AGTGGATA | -0.0692 ± 0.054
ACTTGAGC | 0.0696 ± 0.048
GATTTTAC | -0.23 ± 0.046
ACATGAGT | -0.0507 ± 0.016
CCTATATC | -0.195 ± 0.0043
AATTCCTC | -0.193 ± 0.025
GTCGTGGA | 0.0374 ± 0.015
CGAAATAG | -0.0237 ± 0.00068
CTCGAAGC | -0.0159 ± 0.011
ACAAGACC | 0.0576 ± 0.017

Sequence | PBM E-score of 8-mer
AAGTAGAA | 0.0579 ± 0.014
ACCAGGAG | -0.0755 ± 0.044
TCTGCGCA | 0.0499 ± 0.0022
CTCATAAG | -0.192 ± 0.068
AGAGGTAC | -0.0631 ± 0.0026
CATCCCCC | -0.0831 ± 0.02
CGTCCGAC | 0.000435 ± 0.055
GGAACGAC | -0.00859 ± 0.022
GACGAAGC | -0.0209 ± 0.038
GCCGCGAA | 0.264 ± 0.024
CTAATAGA | -0.176 ± 0.013
ATATAGTA | -0.0423 ± 0.079
CTTCCATC | -0.0699 ± 0.076
GATCTTGC | -0.0442 ± 0.011
CGACCAGA | -0.0136 ± 0.013
ATCAGTTG | 0.0668 ± 0.091
ATCGCACG | 0.34 ± 0.023
GAGCGATC | -0.266 ± 0.02
TCGGCAAA | -0.0411 ± 0.018
AAGCGCGA | 0.375 ± 0.017
GACATAGC | -0.16 ± 0.013
ATCGGGGC | -0.0198 ± 0.045
ACCAAGGA | -0.166 ± 0.087
AATAGACT | -0.175 ± 0.072
ACTCTCCC | 0.106 ± 0.0071

Sequence | PBM E-score of 8-mer
ATAACCCC | -0.142 ± 0.016
CCGTGTAC | -0.147 ± 0.093
CAGTACTA | -0.142 ± 0.045
CCGAACGG | -0.274 ± 0.031
CTCCACAA | 0.141 ± 0.031
GGGTAGGA | -0.205 ± 0.052
CTAAAGGA | -0.136 ± 0.018
ATTTTTTG | 0.011 ± 0.042
GCCCAAAA | -0.0744 ± 0.087
AGTGGCAA | 0.304 ± 0.039
ATAAGTCG | 0.123 ± 0.013
AACCCTCC | -0.152 ± 0.07
AGGAGACT | -0.2111 ± 0.0016
AACGTTGG | 0.0329 ± 0.034
CACGCTCA | 0.164 ± 0.0079
ATGTGCGA | 0.4691 ± 0.0032
CGTGCGCC | -0.0828 ± 0.047
ATTGGTCC | -0.263 ± 0.023
CACCAAGA | 0.198 ± 0.005
ATGGCGGA | -0.225 ± 0.027
GCGGATAC | -0.264 ± 0.031
GAAATTTC | -0.00541 ± 0.12
AGGACCGC | -0.2203 ± 0.0013
GAGTACTA | -0.414 ± 0.0024
CGACTACA | -0.074 ± 0.092

Sequence | PBM E-score of 8-mer
AGCTATAG | -0.0906 ± 0.024
AGCAAAGA | -0.052 ± 0.038
GGGGGTAC | -0.101 ± 0.025
AGTTGAAT | -0.113 ± 0.013
AAAGAGCT | -0.0872 ± 0.017
CAGCTCGC | 0.208 ± 0.022
ATGGACTG | -0.165 ± 0.016
CTGAAAGC | -0.197 ± 0.025
TCCACCAA | -0.0779 ± 0.028
AATTTCTC | 0.0054 ± 0.061
CGACAACC | 0.195 ± 0.048
AACCAAGA | -0.283 ± 0.018
AAGGGATA | -0.189 ± 0.0011
GCAAGCGA | -0.0021 ± 0.006
GATTTATA | -0.131 ± 0.023
CTGGCTAC | -0.191 ± 0.018
CGGGCTGC | -0.205 ± 0.06
CACATATG | 0.293 ± 0.02
ACAATCCT | -0.0218 ± 0.045
ATGTGTCA | 0.4653 ± 0.0037
AACCCTGC | 0.072 ± 0.041
CGTAGCTA | -0.0603 ± 0.07
GTACCTAA | -0.248 ± 0.013
ACCCGCCC | -0.0219 ± 0.026
AACTCTGG | -0.0696 ± 0.058

Sequence | PBM E-score of 8-mer
AATAATCC | -0.267 ± 0.086
ACGTCTTG | 0.016 ± 0.0039
TATCCACA | 0.082 ± 0.0092
CTATGGAC | -0.166 ± 0.017
ATTGCTGG | -0.121 ± 0.086
AGTTTCCA | -0.0589 ± 0.02
GTTCCTCA | -0.0492 ± 0.091
AGCAATAG | 0.0417 ± 0.012
AACATACA | -0.125 ± 0.025
CGGCTTAA | -0.0464 ± 0.01
ACCGTGCG | 0.139 ± 0.038
AGAGGCTA | -0.0399 ± 0.046
GTAGGCAA | 0.0337 ± 0.07
ACGTCGTG | 0.0723 ± 0.029
GATCTACC | -0.169 ± 0.016
CCCCACAG | -0.0866 ± 0.014
GACTCCTA | -0.304 ± 0.027
AGCGTATG | -0.212 ± 0.024
AGCATCGC | 0.00662 ± 0.065
AAACGTTG | -0.22 ± 0.042
CCCGGGTA | -0.077 ± 0.018
CTTAGAAG | -0.0817 ± 0.0036
AACGACTT | 0.169 ± 0.051
CATTCTAC | 0.0187 ± 0.0071
CAGTCATG | -0.121 ± 0.032

Sequence | PBM E-score of 8-mer
CAATACTA | -0.0307 ± 0.0042
AACAAGCG | 0.0684 ± 0.037
TACCGAAA | -0.246 ± 0.014
TACACAGA | -0.274 ± 0.054
CCTTACAC | 0.307 ± 0.017
AAGAAGCT | -0.11 ± 0.044
ATGCTTAG | -0.105 ± 0.051
CTTAGCGA | 0.184 ± 0.025
GCGTTGCC | 0.203 ± 0.034
AGCGCCTG | 0.182 ± 0.02
GACCATTA | 0.0379 ± 0.008
ACTTACAC | 0.249 ± 0.014
CAATGTCG | 0.119 ± 0.014
AATGAGTC | -0.0656 ± 0.019
GGACGCCA | -0.0634 ± 0.11
CATAGGGG | -0.127 ± 0.015
GCCGACCA | -0.153 ± 0.093
ACAAATGA | -0.112 ± 0.006
AGACTACT | -0.2779 ± 0.00068
CGAGCCGC | 0.0246 ± 0.042
ATCCTAAC | 0.055 ± 0.015
AGGTAAGG | 0.00624 ± 0.019
TGAGCTAA | -0.0125 ± 0.0044
AGAGACAA | -0.133 ± 0.017
GATAGGCA | -0.121 ± 0.014

Sequence | PBM E-score of 8-mer
CAAACTCC | -0.0241 ± 0.05
GGAGCTAA | -0.211 ± 0.029
AACATGGT | 0.0819 ± 0.038
ATGGTCAG | -0.181 ± 0.026
GAACTGGA | -0.175 ± 0.037
TATGAAAA | -0.1 ± 0.13
CGCGTGAA | 0.398 ± 0.033
AGGATTAA | -0.0767 ± 0.062
GACTTGAC | 0.137 ± 0.022
AATGAAGC | -0.208 ± 0.076
CCCTGTCC | -0.0624 ± 0.018
CCGTCTTA | -0.126 ± 0.05
AATCGCTG | -0.0604 ± 0.024
CGAATGTA | -0.0853 ± 0.024
GCGGCAAA | 0.18807 ± 7.8e-05
AATCCCCC | -0.301 ± 0.024
ATGTAATC | -0.148 ± 0.016
CGCCATTA | 0.0423 ± 0.0011
CTGCAAAC | -0.0304 ± 0.00092
CAGCAAGA | -0.0656 ± 0.0013
CTCCTAAA | -0.217 ± 0.0066
CAATATTA | -0.137 ± 0.021
